According to the supplement of paper PMC3724861:
The list shows a part of the results.

System: T1, Caupolican (Caup) homeodomain DNA-binding domain
T1 sequence: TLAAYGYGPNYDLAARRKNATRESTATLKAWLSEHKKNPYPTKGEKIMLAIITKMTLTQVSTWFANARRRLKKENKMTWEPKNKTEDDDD
Assay: PBM E-score (8-mer, recovered from the published 9-mer minima) (E-score (dimensionless, -0.5 to 0.5)); Drosophila protein; higher = stronger relative binding preference, active = 0.31 or more
Outline: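 Caup's homeodomain DNA-binding domain (residues 214-303) was made by in vitro transcription and translation and applied at 100 nM to custom-designed protein binding microarrays. Each value is an enrichment score that gives relative binding preference for a short DNA word, with higher meaning stronger. The 8-mer values were recovered from published 9-mer scores, each of which was the minimum of its two constituent 8-mer scores. A cutoff of 0.31 marks candidate sites.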

Sequence | PBM E-score
GATCGTTA | inactive: 0.00773
CCAATGAC | inactive: 0.134
CGGCCACC | inactive: -0.28
GCATCGAC | inactive: 0.051
TAACCCCA | inactive: -0.118
GTCAGACA | inactive: 0.124
ATGCGGCC | inactive: -0.0984
CATACGCG | inactive: -0.0121
GCCATGAA | inactive: -0.0776
CCCTTGCA | inactive: -0.181
GGAGACGA | inactive: -0.0786
ACACGGCT | inactive: 0.193
ATACCAAC | inactive: 0.132
AATTGCTG | inactive: 0.00128
CCCGCGGA | inactive: -0.184
ATTCTGGG | inactive: -0.074
AAACCAAG | inactive: 0.0333
GACAGCTA | inactive: 0.131
ATGAGTCG | inactive: 0.0591
AATGCTGG | inactive: -0.00497
ACGGGGCA | ≥ -0.114
AGACTCGC | inactive: -0.125
GCTGAAAC | inactive: -0.022
AGTTGCTG | inactive: 0.0005

Sequence | PBM E-score
CATACTCC | inactive: 0.113
CGCATAAG | inactive: -0.0518
AAGATACG | inactive: 0.0916
AATTACTA | inactive: 0.179
CATATTAC | inactive: 0.179
ACCCCCGT | inactive: -0.296
CCTTACGC | inactive: -0.0569
CTCCTCCC | inactive: -0.278
AATTGCTA | inactive: 0.0647
ACTTGCTA | inactive: 0.131
GTAAGTGA | inactive: 0.0828
CGATATGA | inactive: 0.0413
CCCATCGA | inactive: -0.0804
AAGTAGGA | ≥ 0.0723
CGATACCG | inactive: -0.126
ACAGGTTC | inactive: 0.119
TATGCAGA | inactive: 0.0345
GGGCTCTA | inactive: -0.168
ACATAAAG | inactive: 0.215
AGCAGCCC | inactive: -0.191
CATTAAGA | inactive: 0.0649
AGACAACC | inactive: 0.201
AATGTCAA | inactive: 0.235
CAGTTTTC | inactive: 0.013

Sequence | PBM E-score
AGCCTGAG | inactive: -0.183
AAAACAGG | inactive: 0.151
CAGTCAAC | inactive: 0.00777
ATGCACAG | inactive: 0.0286
AGGACGTA | inactive: -0.0324
GGTCGGAA | inactive: -0.0888
CTCTACAC | inactive: 0.0598
AGACGAAC | inactive: 0.127
ACCAGGTC | inactive: -0.0436
GGGCTCAC | inactive: -0.165
ATCACACC | inactive: 0.0998
CATGTGGA | inactive: 0.127
CGATTCAA | inactive: -0.00124
CTTGATCA | inactive: 0.114
CAGACCGA | inactive: -0.108
GCCACAAA | inactive: -0.0457
ACGGTAAC | inactive: 0.134
AAGGTCCC | inactive: -0.0972
AGGATATC | inactive: 0.0657
ATAGTCAC | inactive: 0.0756
AGTGTCCG | inactive: -0.0503
GCTCTGAA | inactive: 0.0231
ATCCGGGA | ≥ -0.045
GCAGATGA | inactive: -0.0311

Sequence | PBM E-score
CGCAAACG | inactive: -0.0571
CAAACCGG | inactive: -0.0647
ACCAAGGC | inactive: -0.145
CGGCGCTA | inactive: -0.184
GTATAGAC | inactive: 0.14
AGCAGGTA | inactive: 0.00539
CCTATGTA | active: 0.318
CGATGAGA | inactive: -0.0248
AGGGTAAC | inactive: 0.0404
AGATGTAC | inactive: 0.299
ATTATCAG | inactive: 0.0887
CCTGCAAC | inactive: 0.0474
ATACAGGC | inactive: 0.0779
ATTAAATA | inactive: 0.132
CAGCCACA | inactive: -0.0816
AATCGATT | inactive: 0.112
CCCAAGCC | inactive: -0.173
CTGGCACC | inactive: -0.157
CTGCGTAC | inactive: 0.00168
AGTCTCAC | inactive: -0.0687
CATGAACG | inactive: 0.0839
GGGGGCGA | inactive: -0.279
AATACGTA | inactive: 0.148
TATCTTAA | inactive: 0.1

Sequence | PBM E-score
ATTATCAC | inactive: 0.206
CCAGATGA | inactive: 0.0249
CACAGCAG | inactive: 0.0172
ACGGGAGC | inactive: -0.111
ACACGTGC | inactive: 0.181
CAACGGTA | inactive: -0.0573
ATAAGGAC | inactive: 0.0133
GGTGATAC | inactive: 0.0883
AAAAGCAG | inactive: -0.091
ACCGCGTC | inactive: -0.0819
TATCGTAA | inactive: 0.114
ACCGCCGC | inactive: -0.225
AAAGGTTA | inactive: -0.0429
CCGAGAGC | inactive: -0.211
TCTATAGA | inactive: 0.0302
GCGCCCAA | inactive: -0.0859
AAAGGAAC | inactive: 0.0554
GAGGCCCC | inactive: -0.337
AGGCCCAT | inactive: -0.246
CTAACCTC | inactive: -0.0639
CAGCTTGG | inactive: -0.067
ACGGGTAA | inactive: 0.075
GCGAAACC | inactive: 0.034
CACCGCAC | inactive: -0.12

Sequence | PBM E-score
GCATGGCA | inactive: -0.0563
GCCCGAGA | inactive: -0.13
CCAAGCAC | inactive: 0.0788
GAAACGGC | inactive: -0.0798
CAACTTTA | inactive: 0.0753
CTCGTCAC | inactive: 0.0352
ACTACATC | active: 0.33
TATCAAAA | inactive: 0.116
GATCACAA | inactive: 0.157
ATATACAA | active: ≥ 0.355
AACGTAGT | ≥ 0.151
ATATGGTA | ≥ 0.208
CACATTGA | inactive: 0.134
ACCCTGGC | inactive: -0.248
GTAAGATA | inactive: 0.128
CGTTGTAA | inactive: 0.261
GCTAAGCA | inactive: -0.0629
AAATAATG | inactive: 0.145
CCGAATAC | inactive: 0.0686
GGACGAAC | inactive: 0.0252
ATCATGCA | inactive: 0.103
AGAGGTTC | inactive: -0.127
CTCACGAG | inactive: -0.127
